Measured values as given in the RNAGym collection of RNA variant scans (doi:10.7554/elife.90254).
Read counts are not given, so values of variants with three or more changes are uncertain.

B1: LINE1-mini (parent)
chain: GGCAGAGCUCAACACAGCGUGGCAAAGUGGCUGUGGCUAGACUGCC

Variants of: B1
Test: self-cleavage, relative activity (ratio to wild type); higher = more cleavage; in vitro, sequencing; the parent is a self-cleaving ribozyme

Variant	self-cleavage
G5C G29U A41G	0.06
G35C A41C C42U	0
C31U A41U G44A	0.03
A14U G30U C31A U38C	0.08
C13G A39U C42U	0.06
U32A U43A C45A	0.02
C3G A16C G19A C31A	0.02
A24U G33U C46A	0.05
C15U G17U A26U C42U	0
C15A A26C A41U	0.1
C8A A12U C13G G35A C37A G40U C45A	0.08
C10G G21C A24U C37U	0.01
C3G C23U A25U U28A G35C U38A	0.04
U20G G21C U34A	0.08
G35A G40A C42A C46A	0.06
G1A G21A G29A	1.47
G1A C23A U43G	0
A14U A24C C31A	0.01
G1A A16G U32C U34G	0.06
A6C C8G C10G G33U U34A	0.02
G1A A6C G40A	0.12
C3G U38A G44C	0.24
C13U C15A G27A	0.03
G1A A6U G35U G40A	0.15

Variant	self-cleavage
C3A C8G C13A	0.3
A6U G36A U38G A41U	0.04
C8G G21A G27U G44A	0.04
G22C G33C U34C	0.04
G7U C15G G40A	0.1
G1A A24G U28G	0.38
A6U C31A G33U C37G	0.02
G21A C23A C42U C46U	0.13
G2U U9C C42U	0.06
G5C C8U A16G G30U U34C	0.04
G7C U20A G33A U38A C42A	0.06
G22U G33A C42A	0.12
C13G U20A G35U	0.05
A4U G5A U28G G40A	0.02
C10A U34A G35A	0.06
A25U A39U U43C	0.35
G17U C18U G40U	0.01
C3U A6C U20A	0.51
A25U G35A U38A	0.07
G7C G27C G36A U43A C46G	0.02
G19C U20A U32C C37A G40A C45U	0.15
A11U C13U A39G	0.01
C8G A26C G33A A41U	0.17
C8A G27C C31A C46U	0.16

Variant	self-cleavage
G7U U9G G21C C45G	0.13
U20G G40A C42G	0.03
C3U C10U C13A	0.05
G5A U38C C42G	0.11
G1U C10A G35C	0
C23A A26C G35A G40A C42A	0.09
G2U G35U C42U C45U	0.05
C8A A16C G22U	0.07
C3A A4U U28G G35U U38G	0.05
G1C A6G G19U G21A G29C U38C G40A	0.02
G1C A41G G44U	0.04
A14C A25C C31A	0.05
G1A G33A U43A	0.05
C8A U34G C46U	0.1
C13G C31U G33U G36U C42U	0.08
C15A U20G U32G	0.14
G17A G22C U38A U43G	0.05
C3U U9A G17C G27C G35U C37G	0.06
C8U G29U A39U C42A	0.14
G5U A14C A26G G44U	0.02
A4U A6C C10A	0
G1U G17C G35C	0.04
U9G C18G G40C	0.05
A11U C15U C45A	0.01

Variant	self-cleavage
A26U G29A G36U C46G	0
G2U C31G G33U C37A C42A	0.02
C8A C13U G17U C31U A39C A41U	0.07
C3G U9A G29A G30A	0.06
A4U U9G G19A G44A	0.29
G1U U38G G44C	0.01
U38G A41G C42U	0
G5C G36A A39U	0.03
G2U G19A C31A	0.02
U9C G21A C45G	0.02
A12G G21U A24G U38G	0.02
A6C C8G G19A C23A G29U A39U	0
G2C G35A G36A	0.06
C15A C37A C42A	0.01
G7U C10A A25G G30U C31U	0.02
A6U C8A C15G G30U C37U	0.12
A14C G17U A24U G36U	0.04
C15U U20G G40U	0.01
G2A C3U A6C A11U U20G G29A U43C C46A	0.01
C3G A4C U20G G22C C46A	0.05
C13U G17C C23U A26G	0.04
A4G A25U G35U	0.32
G21U C23U G33U	0.19
G19C G35U A41C	0.01

Variant	self-cleavage
C10A G40C C42U	0.01
G2U U9G G22C	0.05
G19U G21C A24G G33A U34G C42G C45A	0.06
A14C G17U C31A	0.31
G17A C18A G21U G33U	0
G22U C23A G33C	0.06
G2U C13A G17U A26C G27U	0.08
C3U A16G G19A A24U U34G	0.02
C13U G30C C31A	0.09
A4U G33U G35U	0.01
G1U C8G C45A	0.02
G21U G29C C31A	1.29
C10A G29C G30U	0.02
C13A C15G C42A	0.01
G1A C37A A39C	0.09
A4G C8A A12C A14C G19A U20C G29U C31U U43C	0.01
G22U G29U G33C U43G	0
G36U A39C C46U	0.04
G1U A11C C37A	0.01
G7C A16C U28A G33A	0.07
G1C G27U G30C G40A	0
C3G G27C G40U	0.06
G2U C37G G44A	0.06
C8U A11U C13U C15A A26G	0.05

Variant	self-cleavage
U20G A26C U32C	0.03
C8G C23A A25G	0.06
G1A G5C A12C C13U U43C	0.03
C8G A12U G35U	0.11
G2U A26U G36A	0.03
G2A C37A U43G	0.16
G5A G19U C31A U32C G33A A41G	0.05
G2U C3U G7A C8G C13U G36C	0.12
G30A C31G C45U	0.05
C18U U20C G30A	0.78
A4U G33U A39G	0.05
G7C C8G G27U G44A	0.16
U9A G17A C18A C37A	0.01
G2U C13A C15U A26C C31G	0
C8A G21U G22C C42G	0.3
A25G G36A C45G	0.03
G17A C23A C37A C46U	0.07
C3G U9A C15A G22C	0.36
G1U U32A G36U	0.07
C15G G29U G40A	0.07
G1A G2A U9G C10A C23U	0.06
G17C G22U G44C	0.09
G2U C3A A26G G35A	0.06
G19U G21C A26C C45A	0.06

Variant	self-cleavage
G2C G7U U32G G35U	0.06
G7C G35A G44C	0.29
G1C G19U G22U C23A A25U	0.14
G1U C15U G29A U34C	0.06
C15G G29U G35A	0.03
A6G C10A G19U A24U	0.01
G1C A11U G44U	0.01
G5U G22A G29A A39G	0.04
C10U G17A C23U A24C U32A	0.03
A6U G35U A39C A41U	0.19
A6G C8G A24C G36A	0.01
C13U A14C C23A A25G	0.03
A14U C15A G44U	0.03
U9A C10A C18U U32A C37G	0.01
C18G G19U A39G	0.01
A4C G22U A24U	0.1
U9G C15G G21U C23U G30C	0.01
A6C G7U G35U G36A U43G	0.04
A4G C13A A26C U32C C45A	0.01
C3U A4C A24C U34A C42A	0.07
G19A C23A C31U	0.18
C3A U28C C31A G40C	0.07
U9C U20A C23A	0
